From PubChem BioAssay AID540317 (National Center for Advancing Translational Sciences (NCATS), 2011)
Among all 390,000 compounds or so, about 2,200 (0.56%) were called active. This list was built around the results that the source calls inconclusive (neither active nor inactive); the mix of calls is not that of the screen. Calls follow the shape of the dose curve; as a rule, active = well fitted inhibition curve with a large enough effect; inconclusive = small, poorly fitted or top-dose-only effect; inactive = no such curve, though single readings can be large or run the other way. Potencies beside an inconclusive call are fits to weak or partial responses and may not hold up.

biological target: Chromobox protein homolog 1 (Homo sapiens) (UniProt P83916); assay: HTS for Inhibitors of HP1-beta Chromodomain Interactions with Methylated Histone Tails; settings: AlphaScreen HP1-beta / biotin-H3K9me3 peptide binding; series mostly up to 114 µM; also: nearly all actives have a fitted effect of over 70% in size
UniProt P83916, sequence (P83916 whole entry, looked up): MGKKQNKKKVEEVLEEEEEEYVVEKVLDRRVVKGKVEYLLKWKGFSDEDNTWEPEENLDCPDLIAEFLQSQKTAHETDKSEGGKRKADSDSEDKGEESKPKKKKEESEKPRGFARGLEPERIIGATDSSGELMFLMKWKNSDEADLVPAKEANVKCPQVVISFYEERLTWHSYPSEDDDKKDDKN
Method in brief: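 Compound inhibition of the preformed complex between 50 nM HP1-beta and 50 nM biotinylated H3K9me3 peptide was read by AlphaScreen. Buffer was PBS pH 7.4 with 0.01% Tween-20. Incubations ran 30 min at room temperature, with 10 ug/mL donor/acceptor beads.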
Potency is read from the fitted curve at half-maximal effect; tags tell the direction and shape of the fitted curve.

Row | Structure (SMILES) | Potency
1 | CC(=O)Nc1ccc(S(=O)(=O)Nc2cccc(-c3cn4c(n3)SCC4)c2)cc1 | inactive
2 | COc1cccc(NC2=C(C#N)C(=O)NC(c3cccc(OC)c3O)S2)c1 (configuration not stated) | inactive
3 | CC(=O)Nc1cccc(NC(=O)C(=O)NCC(c2ccco2)N2CCc3ccccc32)c1 (configuration not stated) | inconclusive: 50.1 µM [inhibitor, partial curve, poor fit]
4 | O=C(CSc1ccc2ccccc2c1)NCCc1ccc(O)c(O)c1 | active: 79.4 µM
5 | Nc1nc(Sc2ccc(C(F)(F)F)cc2[N+](=O)[O-])n[nH]1 | inactive
6 | COc1ccc(NC(=O)Cn2cc(C(=O)c3ccc(C)c(C)c3)c(=O)c3cc(OC)ccc32)cc1 | inactive
7 | CCN1CCCC1CNC(=O)c1ccc2c(c1)NC(=O)/C(=C\c1ccc(C)cc1)S2 (configuration not stated) | inconclusive: 12.6 µM [inhibitor, partial curve, poor fit]
8 | Cc1ccccc1NNC(=O)C(=O)NNc1ccccc1C | inconclusive: 17.8 µM [inhibitor, partial curve, poor fit]
9 | Cn1nnc(NC(=S)NC(=O)c2ccco2)n1 | inconclusive: 22.4 µM [inhibitor, full curve, poor fit]
10 | CCN(CC)CCOC(=O)c1ccc(NC(=O)CCCN2C(=O)/C(=C/c3cccs3)SC2=S)cc1 | inconclusive: 50.1 µM [inhibitor, partial curve]
11 | COc1ccccc1NS(=O)(=O)c1ccc(N/N=C/c2ccccc2OCC(=O)O)c([N+](=O)[O-])c1 | inconclusive: 56.2 µM [inhibitor, partial curve, poor fit]
12 | Oc1ccc(N2CCN(c3nnnn3-c3ccccc3)CC2)cc1 | inconclusive: 79.4 µM [inhibitor, single point]
13 | CCOc1ccc(NCCC(=O)c2ccc3c(c2)OCO3)cc1 | inconclusive: 28.2 µM [inhibitor, single point]
14 | O=C(O)c1ccc(N2CCN(Cc3ccc4c(c3)OCO4)CC2)c([N+](=O)[O-])c1 | inconclusive: 89.1 µM [inhibitor, single point]
15 | CCOc1ccccc1OCCCC(=O)NNC(=O)c1nn(C)c(=O)c2ccccc12 | inactive
16 | CN(C)c1ccc(/C=C/C(=O)c2ccccc2O)cc1 | active: 12.6 µM
17 | CCN(CC)c1ccc(NC(=S)NC(=O)c2ccco2)cc1 | active: 44.7 µM
18 | Clc1ccc(OCCn2ccnc2)cc1Cl | inconclusive: 44.7 µM [inhibitor, partial curve]
19 | Cn1c(=O)c2c(nc(N3CCCCCC3)n2Cc2cccc3ccccc23)n(C)c1=O | inconclusive: 39.8 µM [inhibitor, partial curve, poor fit]
20 | CCOC(=O)C1CCN(C(=O)CCc2nnc3ccc(N4CCC(C)CC4)nn23)CC1 | inconclusive: 25.1 µM [inhibitor, single point]
21 | CCc1cccc(C)c1Nc1nn2c(=O)c3ccccc3nc2s1 | inconclusive: 11.2 µM [inhibitor, full curve]
22 | COCCNC(=O)[C@@H]1CCCN1S(=O)(=O)c1cccc2cccnc12 | inactive
23 | O=C(O)c1cc(-c2ccc(/C=N/Nc3ccc([N+](=O)[O-])cn3)o2)ccc1Cl | inconclusive: 39.8 µM [inhibitor, full curve]
24 | Cc1ccc(NC(=O)CSc2ccc(-c3sc(-c4ccccc4)nc3C)nn2)cc1F | inactive

Row | Structure (SMILES) | Potency
25 | CNC(=S)N1N=C(c2ccc(C)cc2)CC1c1ccc(Cl)cc1 (configuration not stated) | inconclusive: 0.708 µM [inhibitor, partial curve, poor fit]
26 | O=C(NCc1ccco1)c1cccnc1-c1nc2ccccc2s1 | inconclusive: 63.1 µM [inhibitor, single point]
27 | CCOc1cccc(C(=O)NC(=S)Nc2ccc(Cl)cc2C(=O)O)c1 | inconclusive: 11.2 µM [inhibitor, full curve]
28 | COC(=O)c1cc(O)c(O)c(O)c1 | inconclusive: 50.1 µM [inhibitor, partial curve]
29 | CCN1C(=O)/C(=C/c2ccc(C)o2)N(C)C1=S | inconclusive: 44.7 µM [inhibitor, partial curve]
30 | CC(=O)c1ccc(NC(=O)Cn2c(=O)n(Cc3ccco3)c(=O)c3sc4ccccc4c32)cc1 | inactive
31 | CCN1CCN(c2cc(C)c3cc(NC(=O)c4cc(Cl)ccc4OC)ccc3n2)CC1 | inactive
32 | CCOc1ccc(Nc2nc(N3CCCC3)nc(N3CCN(c4ccc(OC)cc4)CC3)n2)cc1 | inactive
33 | Cc1ccc(S(=O)(=O)NN2C(=O)/C(=C/c3ccc(C(=O)O)cc3)SC2=S)cc1 | inactive
34 | CC1=C(C#N)C(/C=N/OCc2ccc(F)cc2Cl)CC(=O)N1 (configuration not stated) | inconclusive: 28.2 µM [inhibitor, full curve]
35 | COc1ccc(S(=O)(=O)N(CC(=O)N2CCN(C)CC2)c2ccc(C)cc2)cc1Br | inconclusive: 89.1 µM [inhibitor, single point]
36 | O=C(CCN1C(=O)/C(=C\C=C\c2ccccc2)SC1=S)Nc1cccc(C(=O)O)c1 | inconclusive: 28.2 µM [inhibitor, partial curve]
37 | O=C(O)c1cc(-c2ccc(C(F)(F)F)cc2)nc2n[nH]c(-c3ccccc3)c12 | inactive
38 | Cc1ccc(N2CC(NC(=O)N3CCN(C(=O)c4ccco4)CC3)CC2=O)cc1 (configuration not stated) | inactive
39 | CCOc1ccc(N/C=C/C(=O)c2ccc3ccccc3c2)c([N+](=O)[O-])c1 | inconclusive: 3.98 µM [inhibitor, partial curve, poor fit]
40 | COc1ccc(C(=O)N2CCN(Cc3ccc4c(c3)OCO4)CC2)cc1OC | inconclusive: 15.8 µM [inhibitor, full curve]
41 | CCc1cc[n+](/C(C(=S)Nc2cccc(C)c2)=C(/[O-])c2ccc(C)c([N+](=O)[O-])c2)cc1 | inconclusive: 17.8 µM [inhibitor, full curve]
42 | COc1cc(/C=N/Nc2cccc3cccnc23)cc(OC)c1O | inconclusive: 31.6 µM [inhibitor, partial curve]
43 | CC1=C/C(=N\NC(=S)NCc2ccccc2)CC1 | inconclusive: 70.8 µM [inhibitor, partial curve]
44 | O=C1CN(C(=O)CNCc2ccccc2Cl)c2ccccc2N1 | inconclusive: 56.2 µM [inhibitor, partial curve, poor fit]
45 | O=C(NCCSc1c(-c2ccccc2)[nH]c2ccccc12)c1ccc(S(=O)(=O)N2CCOCC2)cc1 | inactive
46 | O=C(Cn1cc(C(F)(F)F)ccc1=O)NCc1ccc(F)cc1 | inactive
47 | COc1ccc(Cl)cc1NC(=O)CSC1=NN2CCCC(=O)N=C2S1 | inactive
48 | CC(=O)C1=C(C)N2CCN=C2S1 | inactive

Row | Structure (SMILES) | Potency
49 | COc1cccc(CN2CCN(Cc3cc(OC)c(OC)c(OC)c3)CC2)c1OC | inconclusive: 22.4 µM [inhibitor, single point]
50 | CC(C)C[C@H](NC(=O)N1CCn2c1nc1ccccc12)C(=O)NCc1ccc2c(c1)OCO2 | inactive
51 | CC(C)Oc1ccc(CNC(=O)Cn2c(-c3cccs3)cc3ccccc32)cc1 | inactive
52 | CC1([N+](=O)[O-])COC(C=Cc2ccccc2)OC1 (configuration not stated) | inactive
53 | CN1CCN(NC(=O)c2cccs2)CC1 | inactive
54 | CC(=O)c1ccc(N=Nc2ccc(C)cc2)cc1 | inconclusive: 8.91 µM [inhibitor, full curve]
55 | COc1ccc(CCNc2oc(COc3ccccc3F)nc2C#N)cc1OC | inconclusive: 70.8 µM [inhibitor, single point]
56 | COc1cccc(C(=O)Nc2ccc(C(=O)O)cc2)c1 | inactive
57 | Cc1ccccc1NS(=O)(=O)c1nnc(NC(=O)c2ccco2)s1 | inconclusive: 11.2 µM [inhibitor, full curve]
58 | COc1ccc(C=C2C(=O)c3ccccc3C2=O)cc1O | inconclusive: 28.2 µM [inhibitor, partial curve]
59 | COc1ccc(NC(=O)CSc2ccc3c4c(cccc24)C(=O)c2ccccc2-3)cc1 | inactive
60 | Cc1ccc(NC(=O)CN2C(=O)S/C(=C\c3ccc(-c4cccc(C(=O)O)c4C)o3)C2=O)cc1C | active: 35.5 µM
61 | O=C(Oc1ccc(=O)n(-c2ccccc2)n1)c1ccc(F)cc1 | inactive
62 | O=C(COC(=O)C1Cc2ccccc2CN1C(=O)c1ccccc1)Nc1ccc(SC(F)F)cc1 (configuration not stated) | inconclusive: 3.98 µM [inhibitor, full curve, poor fit]
63 | O=S(=O)(Nc1nc2ccccc2nc1NCC1CCCO1)c1cccc(Cl)c1 (configuration not stated) | inactive
64 | O=[N+]([O-])c1ccc(S(=O)(=O)NCC(c2cccnc2)N2CCc3ccccc32)cc1 (configuration not stated) | inconclusive: 50.1 µM [inhibitor, partial curve, poor fit]
65 | Cc1ccc(C(=O)NC(C)c2ccc3c(c2)OCO3)s1 (configuration not stated) | inconclusive: 7.08 µM [inhibitor, full curve]
66 | CC1Sc2ccc(C(=O)NCc3ccccn3)cc2NC1=O (configuration not stated) | inconclusive: 8.91 µM [inhibitor, full curve, poor fit]
67 | CC1CN(CCCCSc2ccc(Cl)cc2)CC(C)O1 (configuration not stated) | inconclusive: 56.2 µM [inhibitor, single point]
68 | O=C(NC1CCCC1)C(c1ccc(Cl)cc1)N1CCc2ccccc21 (configuration not stated) | inactive
69 | C=CCSC1=N/C(=C\c2cc(OCC)c(OC(C)=O)c([N+](=O)[O-])c2)C(=O)S1 | active: 28.2 µM
70 | NS(=O)(=O)c1cc(C(=O)OCC(=O)N2CCOCC2)ccc1Cl | inactive
71 | Cc1cc(NS(=O)(=O)c2ccc(NC(=O)CSc3nc4sc(C(=O)O)c(C)c4c(=O)[nH]3)cc2)no1 | inconclusive: 39.8 µM [inhibitor, single point]
72 | O=C(c1ccccc1)N1CCN(Cc2ccccc2C(F)(F)F)CC1 | inconclusive: 50.1 µM [inhibitor, partial curve]
